Measured values from PMC4336329 (PLoS ONE, 2015).
In all, about 310,000 compounds went through this assay and about 14,000 (4.5%) showed an effect of 50% or more. The effect is printed as a negative number. Some of the results follow.

Target: human ether-à-go-go-related gene (hERG) potassium channel (human, UniProt Q12809)
Test: primary screen, population patch clamp on CHO cells stably expressing hERG
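Also: peak tail current of the secondary pulse compared with the same well before compound.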

Chain of human ether-à-go-go-related gene (hERG) potassium channel (Q12809 whole entry, looked up): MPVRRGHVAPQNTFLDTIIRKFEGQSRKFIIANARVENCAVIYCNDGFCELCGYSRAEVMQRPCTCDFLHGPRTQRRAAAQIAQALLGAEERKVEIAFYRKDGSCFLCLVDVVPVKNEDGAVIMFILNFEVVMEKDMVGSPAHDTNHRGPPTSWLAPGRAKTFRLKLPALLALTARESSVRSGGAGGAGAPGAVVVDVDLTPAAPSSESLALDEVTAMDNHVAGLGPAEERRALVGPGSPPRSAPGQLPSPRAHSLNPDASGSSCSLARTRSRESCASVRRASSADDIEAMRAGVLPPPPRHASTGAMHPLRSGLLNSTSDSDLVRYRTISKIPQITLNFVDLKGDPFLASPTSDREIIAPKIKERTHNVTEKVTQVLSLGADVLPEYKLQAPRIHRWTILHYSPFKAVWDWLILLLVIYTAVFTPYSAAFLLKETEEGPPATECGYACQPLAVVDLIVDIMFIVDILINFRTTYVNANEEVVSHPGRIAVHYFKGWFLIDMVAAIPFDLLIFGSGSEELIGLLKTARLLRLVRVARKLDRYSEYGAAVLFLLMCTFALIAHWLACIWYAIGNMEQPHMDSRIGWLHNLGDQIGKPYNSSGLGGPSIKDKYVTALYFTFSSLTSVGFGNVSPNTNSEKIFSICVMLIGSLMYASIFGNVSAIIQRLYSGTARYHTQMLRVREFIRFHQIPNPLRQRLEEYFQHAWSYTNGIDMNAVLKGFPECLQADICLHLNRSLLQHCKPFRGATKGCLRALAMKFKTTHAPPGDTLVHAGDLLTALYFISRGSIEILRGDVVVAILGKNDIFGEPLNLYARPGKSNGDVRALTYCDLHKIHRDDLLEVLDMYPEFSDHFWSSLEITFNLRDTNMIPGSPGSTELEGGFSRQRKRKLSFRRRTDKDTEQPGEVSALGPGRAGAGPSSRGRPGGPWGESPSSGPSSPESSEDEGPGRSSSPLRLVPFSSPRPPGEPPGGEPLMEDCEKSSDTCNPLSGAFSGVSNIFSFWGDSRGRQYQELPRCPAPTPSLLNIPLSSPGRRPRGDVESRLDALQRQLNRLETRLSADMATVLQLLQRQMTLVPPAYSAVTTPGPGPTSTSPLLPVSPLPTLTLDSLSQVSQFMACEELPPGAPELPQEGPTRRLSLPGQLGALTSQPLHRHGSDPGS

Structure (SMILES) | hERG current change (%, negative = inhibition) at 10uM [%]
CC1(C2CC2)NC(=O)N(CC(=O)Nc2cc(S(=O)(=O)N3CCCCC3)ccc2Cl)C1=O (stereo not drawn) | -11.4
CN(CC(=O)Nc1c(Cl)cccc1Cl)C(=O)CCNS(=O)(=O)c1ccccc1C(F)(F)F | -4.21
CCOc1ccccc1-n1nnnc1SCC(=O)Nc1cc(C)on1 | -16.2
C=CCNC(=O)/C(=C\c1ccc(OC)cc1)NC(=O)c1ccc([N+](=O)[O-])cc1 | -77.1
O=C(NCc1nnc(SCc2ccccc2)n1-c1ccccc1)C12CC3CC(CC(C3)C1)C2 | -34.3
CC(C)c1ccc(C(=O)CSc2ncn[nH]2)cc1 | 8.04
COc1ccc(CCNC(=O)COC(=O)c2cc(S(=O)(=O)NCc3ccccc3)ccc2O)cc1OC | -1.06
COc1ccc(NC(=O)COc2coc(CN3c4ccccc4CC3C)cc2=O)cc1 (stereo not drawn) | 5.06
CCc1ccc(NC(=O)CSc2nnc(-c3cnccn3)n2C)cc1 | -21.2
Cc1ncc([N+](=O)[O-])n1CC(=O)NC1CCCCCC1 | 15.7
C/C(Cn1nnc2ccccc21)=N/OC(=O)c1c(F)cccc1F | 12.5
CCOc1c2ccc(C(=O)NCc3cc(C(F)(F)F)cc(C(F)(F)F)c3)cc2nn1C | -5.13
CN(CC1CCOCC1)C(=O)CC1C(=O)NCCN1CC(c1ccccc1)c1ccccc1 (stereo not drawn) | -0.796
Cc1cccc(Cn2cc(SCC(=O)Nc3nccs3)c3ccccc32)c1 | -0.134
O=C(O)COc1ccc(S(=O)(=O)N2CCCC2)cc1 | 19.5
O=S1(=O)CCC(=Nc2ccc(Cl)cc2)c2ccsc21 | 12.4
Cc1cc2cc(CNC(=S)Nc3ccc(OC(F)F)cc3)ccc2[nH]1 | -4.07
Cc1cc(C)nc(SCCn2c(N3CCCCC3)nc3c2c(=O)n(C)c(=O)n3C)n1 | -4.05
COc1cc(C(=O)NNC(=O)c2ccoc2C)cc(OC)c1OC | 18.1
O=C(Oc1ccc(Br)cc1C(=O)/C=C/c1ccccc1F)c1ccco1 | 7.3
COc1cccc(NC(=O)COC(=O)c2ccc(C)c(S(=O)(=O)N3CCCCC3)c2)c1 | 2.07

Structure (SMILES) | hERG current change (%, negative = inhibition) at 10uM [%]
CCOC(=O)c1ccccc1NC(=O)c1nc2nccc(C)n2n1 | -19.8
Cc1ccc(O)c(-c2[nH]ncc2C(=O)c2ccc(Cl)cc2)c1 | 21.5
COc1ccc(CC(=O)N(C)Cc2cccc(F)c2)cc1S(=O)(=O)N1CCOCC1 | -16.9
O=C1COc2ccc(C(=O)CSc3nnnn3-c3ccccc3)cc2N1 | -10.4
CCn1cc(C(=O)O)c(=O)c2cnc(N3CCN(C(=S)NC(=O)c4ccc(Br)cc4)CC3)nc21 | -4.77
Cc1cccc(N2CCN(S(=O)(=O)c3ccc4c(c3)C(C)(C)C(=O)N4C)CC2)c1C | 5.06
Oc1ccc(/C=N/Nc2cc(N3CCCC3)nc(N3CCCC3)n2)cc1 | 1.56
COc1ccc(C(=O)O/N=C(\N)c2ccccn2)cc1[N+](=O)[O-] | 4.09
Nc1ccc(S(=O)(=O)N2CCCCC2c2cccnc2)cc1 (stereo not drawn) | -6.2
COc1ccc(-c2ccc(NCCN3CCOCC3)nn2)cc1OC | 12.2
COc1ccccc1N(C1=NCCCS1)S(=O)(=O)c1ccc(C(C)(C)C)cc1 | -0.345
CCOc1ccc(CNC(=O)c2cc3oc4ccccc4c3n2C)cc1 | 17.8
COc1ccc(CC(=O)Nc2c3c(nn2-c2cccc(C)c2C)CS(=O)(=O)C3)cc1 | -24.5
O=C(O)c1ccc2noc(-c3ccccc3)c2c1 | 13.2
CSc1ncc(Cl)c(C(=O)Nc2c(C)cccc2C)n1 | 28.5
CCOc1ccc(OCCC(=O)NNC(=O)c2ccncc2)cc1 | -19.6
CCCC(C(=O)NC1CCCCC1)N(CC1CCCO1)C(=O)CNS(=O)(=O)c1ccc(F)cc1 (stereo not drawn) | -21.1
Cc1nc(-c2ccc([N+](=O)[O-])cc2)sc1C(=O)O | 10.3
O=C(Nc1cccc(NC(=O)c2ccccc2[N+](=O)[O-])n1)c1ccccc1[N+](=O)[O-] | 9.48
Cc1ccc(C(=O)Nc2nccc(C)n2)cc1 | 16.2
CCOC(=O)/C=C/C(=O)Nc1ccc(S(=O)(=O)Nc2c(C)cc(C)cc2C)cc1 | 7.22

Structure (SMILES) | hERG current change (%, negative = inhibition) at 10uM [%]
COc1ccc(-c2cc(C(=O)N3CCCCCC3)c3ccccc3n2)c(OC)c1 | -18.6
Cc1ccc(S(=O)(=O)n2nc(OC(=O)c3c(F)cccc3Cl)cc2N)cc1 | -26.7
CC(C)C1=NOC(C(=O)N2CCC(N3CCC(C(=O)N4CCOCC4)CC3)CC2)C1 (stereo not drawn) | 14.4
Cc1nnc(C)n1/N=C/c1cccn1C | 3.31
CCOc1ccc(-c2c(=O)n(OCc3ccc([N+](=O)[O-])cc3)c3ccccc3[n+]2[O-])cc1 | -14.2
Cc1ccc2nc3c(cc2c1)c(C)nn3-c1ccccc1 | 16
O=C(NCc1ccco1)/C(=C\c1ccco1)NC(=O)c1ccco1 | 2.27
NC(=O)c1nsc(C(=O)N(c2ccccc2)C(C(=O)NCc2ccc(F)cc2)c2ccc(O)cc2)c1N (stereo not drawn) | 1.07
COc1cccc(-c2cc(C(=O)Nc3c(C)nn(Cc4ccccc4)c3C)no2)c1 | 6.3
COc1ccc(N2CC(C(=O)N[C@@H](C)C(=O)NCc3ccccc3OC)CC2=O)cc1 (stereo partly drawn) | 11.1
O=C(NCC1CCCO1)c1ccc(Oc2ccc([N+](=O)[O-])cc2)cc1 (stereo not drawn) | -60.8
Cc1ccc(Br)cc1S(=O)(=O)N1CCN(c2ccccc2)CC1 | -3.42
Cc1ccccc1CC(=O)NC1CCCc2ccccc21 (stereo not drawn) | 24.8
CN(C)c1ccc(/C=N/NC(=O)c2ccnn2C)cc1 | 0.696
CCN(Cc1ccccc1)C(=O)Cn1c(=O)n(CC(=O)N2CCCCC2)c(=O)c2sccc21 | 7.16
Fc1cc2[nH]cnc2cc1Cl | 9.69
N#CC1=C(N)Nc2ncnn2C1c1ccccc1 (stereo not drawn) | 10.6
O=C(Nc1cc(Cl)ccc1N1CCOCC1)c1cnccn1 | 1.99
CNC(=O)COc1coc(CN2CCN(c3ccccc3OC)CC2)cc1=O | 13.6
COCCn1c(SCC(=O)Nc2ccc(OC)c(S(N)(=O)=O)c2)nc2ccccc21 | 2.06
CN1CCN(C(=S)c2ccc(OCC(=O)Nc3cccc(C(F)(F)F)c3)cc2)CC1 | -11.2

Structure (SMILES) | hERG current change (%, negative = inhibition) at 10uM [%]
CCn1nc(C(=O)N[C@@H](CCSC)c2nc3ccccc3[nH]2)c2ccccc2c1=O | -42.3
Cc1cnc(NC(=O)c2cc3c(C)nn(-c4ccccc4)c3s2)s1 | 9.03
Fc1ccc(CSc2nnc3ccccn23)c(Cl)c1 | 14.1
CCN(C1CCS(=O)(=O)C1)S(=O)(=O)c1ccc(OC)c(OC)c1 (stereo not drawn) | -9.93
O=C1OCCN1S(=O)(=O)Nc1ccccc1 | 12.8
COc1ccc(CCN(C)Cc2c(O)ccc3cc(Br)ccc23)cc1OC | -59.5
COc1ccc(CS(=O)(=O)CC2(O)CCN(C(=O)c3cccc(C(F)(F)F)c3)CC2)cc1 | -6.92
c1ccc(C(c2c[nH]c3ccccc23)c2c[nH]c3ccccc23)nc1 | -8.55
COc1ccc([N+](=O)[O-])cc1N(CC(O)CN(CC(C)C)CC(C)C)S(=O)(=O)c1ccc(C)cc1.Cl (stereo not drawn) | -13.7
CCSC1=NCCN1S(=O)(=O)c1ccc(Cl)cc1 | -20.1
COc1ccccc1NC(=S)N(Cc1cccnc1)Cc1ccco1 | -33.6
Cc1noc(NS(=O)(=O)c2ccc(NC(=O)CSc3ncccn3)cc2)c1C | -1.05
CN(C)C(=O)c1c(-c2ccccc2)oc2ccc(O)cc12 | -6.5
CCOC(=O)C1=C(COC(=O)CCOc2ccccc2)NC(=O)NC1C (stereo not drawn) | -30.6
c1ccc(-c2nc(N3CCCCCC3)c3ccccc3n2)nc1 | -77.5
COc1ccc(-n2cnnc2SCC(=O)NC2CCCc3ccccc32)cc1 (stereo not drawn) | 2.51
Cn1c(CC(=O)NNC(=O)c2ccccc2[N+](=O)[O-])nc2ccccc21 | 9.9
CCN1C(=NCC2CC2)N[C@@H](c2cccc(C(F)(F)F)c2)C(C(=O)OC)=C1C | -21.6
OC[C@@H](O)[C@@H](O[C@H]1O[C@H](CO)[C@@H](O)[C@H](O)[C@H]1O)[C@H](O)[C@@H](O)CO | 16.4
CC[C@@]12C(=O)N(c3cccc(Br)c3)C(=O)N1[C@H](c1ccc(Cl)cc1)[C@@H]1C(=O)N(C3CCCCC3)C(=O)[C@@H]12 | -3.71
COC(=O)c1ccc(C2SCC(=O)N2Cc2ccccc2)cc1 (stereo not drawn) | -17.7
